Numbering of substitutions follows the chain as printed; changes in the protein carry UniProt numbers. Some of the results follow.

Drawing on article PMC9911399, “Two distinct binding modes provide the RNA-binding protein RbFox with extraordinary sequence specificity”, this text covers binding signal for 31 molecules.

To fix the notation:
T1: RBFOX1 RRM RbFoxmut (Fox-RRM*) (Homo sapiens, UniProt Q9NWB1 109-208, R118D;E147R;N151S;E152T)
T1 sequence: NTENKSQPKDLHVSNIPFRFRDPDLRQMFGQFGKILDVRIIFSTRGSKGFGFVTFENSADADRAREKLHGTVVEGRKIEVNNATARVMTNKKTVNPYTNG

B1: GUCCUAG (DNA:RNA)
RNA: GGGAGACCGGAAUUCAGAUUGUCCGUCCUAGUUAAAUCCCGUCGUAGCCACCA
DNA 1: CAATCTGAATTCCGGTCTCCC
DNA 2: TGGTGGCTACGACGGGATT
B2: GGGGCUG (DNA:RNA)
RNA: B1 RNA with U26G, C27G, C28G, U29C, A30U
DNA 1: CAATCTGAATTCCGGTCTCCC
DNA 2: TGGTGGCTACGACGGGATT
B3: AGAAUCU (DNA:RNA)
RNA: B1 RNA with G25A, U26G, C27A, C28A, A30C, G31U
DNA 1: CAATCTGAATTCCGGTCTCCC
DNA 2: TGGTGGCTACGACGGGATT
B4: GGCGAUC (DNA:RNA)
RNA: B1 RNA with U26G, C28G, U29A, A30U, G31C
DNA 1: CAATCTGAATTCCGGTCTCCC
DNA 2: TGGTGGCTACGACGGGATT
B5: AGCGCAC (DNA:RNA)
RNA: B1 RNA with G25A, U26G, C28G, U29C, G31C
DNA 1: CAATCTGAATTCCGGTCTCCC
DNA 2: TGGTGGCTACGACGGGATT
B6: UGCAAUA (DNA:RNA)
RNA: B1 RNA with G25U, U26G, C28A, U29A, A30U, G31A
DNA 1: CAATCTGAATTCCGGTCTCCC
DNA 2: TGGTGGCTACGACGGGATT
B7: AUAACGC (DNA:RNA)
RNA: B1 RNA with G25A, C27A, C28A, U29C, A30G, G31C
DNA 1: CAATCTGAATTCCGGTCTCCC
DNA 2: TGGTGGCTACGACGGGATT
B8: GGUUUGG (DNA:RNA)
RNA: B1 RNA with U26G, C27U, C28U, A30G
DNA 1: CAATCTGAATTCCGGTCTCCC
DNA 2: TGGTGGCTACGACGGGATT
B9: AUGAAUG (DNA:RNA)
RNA: B1 RNA with G25A, C27G, C28A, U29A, A30U
DNA 1: CAATCTGAATTCCGGTCTCCC
DNA 2: TGGTGGCTACGACGGGATT
B10: CUUACAA (DNA:RNA)
RNA: B1 RNA with G25C, C27U, C28A, U29C, G31A
DNA 1: CAATCTGAATTCCGGTCTCCC
DNA 2: TGGTGGCTACGACGGGATT
B11: AUGCAUC (DNA:RNA)
RNA: B1 RNA with G25A, C27G, U29A, A30U, G31C
DNA 1: CAATCTGAATTCCGGTCTCCC
DNA 2: TGGTGGCTACGACGGGATT
B12: UGGUGAU (DNA:RNA)
RNA: B1 RNA with G25U, U26G, C27G, C28U, U29G, G31U
DNA 1: CAATCTGAATTCCGGTCTCCC
DNA 2: TGGTGGCTACGACGGGATT
B13: UAUACAC (DNA:RNA)
RNA: B1 RNA with G25U, U26A, C27U, C28A, U29C, G31C
DNA 1: CAATCTGAATTCCGGTCTCCC
DNA 2: TGGTGGCTACGACGGGATT
B14: UCGUUGA (DNA:RNA)
RNA: B1 RNA with G25U, U26C, C27G, C28U, A30G, G31A
DNA 1: CAATCTGAATTCCGGTCTCCC
DNA 2: TGGTGGCTACGACGGGATT
B15: CUUACCG (DNA:RNA)
RNA: B1 RNA with G25C, C27U, C28A, U29C, A30C
DNA 1: CAATCTGAATTCCGGTCTCCC
DNA 2: TGGTGGCTACGACGGGATT
B16: AGCGGUC (DNA:RNA)
RNA: B1 RNA with G25A, U26G, C28G, U29G, A30U, G31C
DNA 1: CAATCTGAATTCCGGTCTCCC
DNA 2: TGGTGGCTACGACGGGATT
B17: UAAUAUA (DNA:RNA)
RNA: GGGAGACCGGAAUUCAGAUUGUCCUAAUAUAUUAAAUCCCGUCGUAGCCACCA
DNA 1: CAATCTGAATTCCGGTCTCCC
DNA 2: TGGTGGCTACGACGGGATT
B18: UGGCCGC (DNA:RNA)
RNA: B1 RNA with G25U, U26G, C27G, U29C, A30G, G31C
DNA 1: CAATCTGAATTCCGGTCTCCC
DNA 2: TGGTGGCTACGACGGGATT
B19: AGCCAGU (DNA:RNA)
RNA: B1 RNA with G25A, U26G, U29A, A30G, G31U
DNA 1: CAATCTGAATTCCGGTCTCCC
DNA 2: TGGTGGCTACGACGGGATT
B20: GGAAUCG (DNA:RNA)
RNA: B1 RNA with U26G, C27A, C28A, A30C
DNA 1: CAATCTGAATTCCGGTCTCCC
DNA 2: TGGTGGCTACGACGGGATT
B21: GUCUCGC (DNA:RNA)
RNA: B1 RNA with C28U, U29C, A30G, G31C
DNA 1: CAATCTGAATTCCGGTCTCCC
DNA 2: TGGTGGCTACGACGGGATT
B22: AGAAGAG (DNA:RNA)
RNA: B1 RNA with G25A, U26G, C27A, C28A, U29G
DNA 1: CAATCTGAATTCCGGTCTCCC
DNA 2: TGGTGGCTACGACGGGATT
B23: AACCUGA (DNA:RNA)
RNA: B1 RNA with G25A, U26A, A30G, G31A
DNA 1: CAATCTGAATTCCGGTCTCCC
DNA 2: TGGTGGCTACGACGGGATT
B24: GGGAGGG (DNA:RNA)
RNA: B1 RNA with U26G, C27G, C28A, U29G, A30G
DNA 1: CAATCTGAATTCCGGTCTCCC
DNA 2: TGGTGGCTACGACGGGATT
B25: CGGAAAA (DNA:RNA)
RNA: B17 RNA with U25C, A26G, A27G, U28A, U30A
DNA 1: CAATCTGAATTCCGGTCTCCC
DNA 2: TGGTGGCTACGACGGGATT
B26: ACCUCUA (DNA:RNA)
RNA: B17 RNA with U25A, A26C, A27C, A29C
DNA 1: CAATCTGAATTCCGGTCTCCC
DNA 2: TGGTGGCTACGACGGGATT
B27: AGGCUAC (DNA:RNA)
RNA: B1 RNA with G25A, U26G, C27G, G31C
DNA 1: CAATCTGAATTCCGGTCTCCC
DNA 2: TGGTGGCTACGACGGGATT
B28: UCACACU (DNA:RNA)
RNA: B17 RNA with A26C, U28C, U30C, A31U
DNA 1: CAATCTGAATTCCGGTCTCCC
DNA 2: TGGTGGCTACGACGGGATT
B29: CUGCGUC (DNA:RNA)
RNA: B1 RNA with G25C, C27G, U29G, A30U, G31C
DNA 1: CAATCTGAATTCCGGTCTCCC
DNA 2: TGGTGGCTACGACGGGATT
B30: GUUCAGG (DNA:RNA)
RNA: B1 RNA with C27U, U29A, A30G
DNA 1: CAATCTGAATTCCGGTCTCCC
DNA 2: TGGTGGCTACGACGGGATT
B31: GAAAAAA (DNA:RNA)
RNA: B17 RNA with U25G, U28A, U30A
DNA 1: CAATCTGAATTCCGGTCTCCC
DNA 2: TGGTGGCTACGACGGGATT

For the test, the target named is T1, RBFOX1 RRM RbFoxmut (Fox-RRM*). Kind of test: EMSA; HiTS-Eq, 1 nM pool, 10 min; buffer printed only for the single-RNA assays: 10 mM Tris pH 7.5, 150 mM NaCl, 3.4 mM EDTA, 0.001% NP-40, 30 C. To be noted: tags: His6 N-terminal (pET28a); label: 5' 32P. Put shortly: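 Purified wild-type or mutant RbFox RRM at increasing concentrations was equilibrated with 1 nM of 5′-radiolabelled RNA carrying 7 randomized nucleotides for 10 min in 50 µL. Unbound RNA was separated by 8% native PAGE and sequenced. Relative association constants came from read-count changes of each RNA species compared with the control reaction, normalised to the cognate motif.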
A general note: Mobility shift assays separate free from complexed probe on a gel.
Consider B1, for which the binding signal is 0.119 KA relative to UGCAUGU.

Turning to B2, the binding signal is 0.339 KA relative to UGCAUGU.

B3: the binding signal was 0.175 KA relative to UGCAUGU. Regarding B4, the binding signal was 0.233 KA relative to UGCAUGU. Turning to B5, the binding signal was 0.0743 KA relative to UGCAUGU. Take B6: the binding signal is 0.121 KA relative to UGCAUGU. On to B7, for which the binding signal was 0.0979 KA relative to UGCAUGU. Turning to B8, the binding signal was 0.277 KA relative to UGCAUGU.

Take B9: the binding signal was 1.02 KA relative to UGCAUGU. For the molecule B10, the binding signal was 0.0794 KA relative to UGCAUGU. Consider B11, for which the binding signal was 0.446 KA relative to UGCAUGU. As to B12, the binding signal is 0.0945 KA relative to UGCAUGU. As for B13, the binding signal is 0.0888 KA relative to UGCAUGU. To B14 belongs 0.107 KA relative to UGCAUGU; to B15, 0.094 KA relative to UGCAUGU; to B16, 0.154 KA relative to UGCAUGU. To B17 belongs 0.081 KA relative to UGCAUGU; to B18, 0.129 KA relative to UGCAUGU; to B19, 0.0972 KA relative to UGCAUGU. Turning to B20, the binding signal was 0.387 KA relative to UGCAUGU. Regarding B21, the binding signal is 0.169 KA relative to UGCAUGU. For B22 the value was 0.135 KA relative to UGCAUGU; for B23, 0.0413 KA relative to UGCAUGU; for B24, 0.0607 KA relative to UGCAUGU. With B25, the binding signal was 0.0639 KA relative to UGCAUGU. Consider B26, for which the binding signal is 0.091 KA relative to UGCAUGU. To B27 belongs 0.104 KA relative to UGCAUGU. Turning to B28, the binding signal is 0.0628 KA relative to UGCAUGU. B29: the binding signal is 0.192 KA relative to UGCAUGU. Regarding B30, the binding signal was 0.0776 KA relative to UGCAUGU. Take B31: the binding signal is 0.0608 KA relative to UGCAUGU.
